# This is one part of the list.
# B1: AT1G73650(15) (Arabidopsis thaliana), F4HRY1 (protein)
# chain: MGTVLDSHFLALTAIVTVIYQFIFFVITALFKFDQVTDFAGSTNFVILAVLTLVLKASWHFRQIVLTLLVVVWGLRLGIFLLMETRILQWGEDRRFDEQRGNIVRLIIFWTLQAVWVWTVSLPLTLVNASDGGGSLKPADVIGWTMETWVFGFLIEAAADQQKLSFKNSPENRGKWCDVGVWKYSRHPNYFGEMETLLWWGIFVAASPVLEGAEYLVIFGPLFLTLLLLFVSGIPLLEASADKKHGNSGAYRSYKKTTSPLILFPRGVYGNLPGWFKTVFLFEFPFYSRNLPQEGRLQNSKEKEVKDD
# Assays:
# Test in all cases: glycan array binding signal (z-score within array); higher = stronger binding
# Settings in all cases: glycan notation: IUPAC condensed, linker removed
# [1] = biological target: Neu5Ac(a2-3)Gal(b1-4)GlcNAc(b1-3)[Neu5Ac(a2-3)Gal(b1-4)GlcNAc(b1-6)]GalNAc
# Procedure, shortened: (§1)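 The Consortium for Functional Glycomics database supplied 3228 glycan arrays, of which those lacking an available protein sequence were dropped. The binding signal, a within-array Z-score, was averaged across arrays of the same protein sequence and across linkers. Negative scores can be read as non-binding.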
# [2] = biological target: Neu5Ac(a2-3)Gal(b1-4)GlcNAc(b1-6)GalNAc
# Procedure, shortened: as §1
# [3] = biological target: Neu5Ac(a2-3)Gal(b1-4)GlcNAc(b1-6)[Gal(b1-3)]GalNAc
# Procedure, shortened: as §1
# [4] = biological target: Neu5Ac(a2-3)Gal(b1-4)GlcNAc(b1-6)[Neu5Ac(a2-3)Gal(b1-3)]GalNAc
# Procedure, shortened: as §1
# [5] = biological target: Neu5Ac(a2-3)Gal(b1-4)GlcNAc6S
# Procedure, shortened: as §1
# [6] = biological target: Neu5Ac(a2-3)Gal(b1-4)[Fuc(a1-3)]GlcNAc
# Procedure, shortened: as §1
# [7] = biological target: Neu5Ac(a2-3)Gal(b1-4)[Fuc(a1-3)]GlcNAc(b1-2)Man
# Procedure, shortened: as §1
# [8] = biological target: Neu5Ac(a2-3)Gal(b1-4)[Fuc(a1-3)]GlcNAc(b1-3)Gal
# Procedure, shortened: as §1
# [9] = biological target: Neu5Ac(a2-3)Gal(b1-4)[Fuc(a1-3)]GlcNAc(b1-3)Gal(b1-4)GlcNAc
# Procedure, shortened: as §1
# [10] = biological target: Neu5Ac(a2-3)Gal(b1-4)[Fuc(a1-3)]GlcNAc(b1-3)Gal(b1-4)[Fuc(a1-3)]GlcNAc(b1-3)Gal(b1-4)[Fuc(a1-3)]GlcNAc
# Procedure, shortened: as §1
# [11] = biological target: Neu5Ac(a2-3)Gal(b1-4)[Fuc(a1-3)]GlcNAc(b1-3)GalNAc
# Procedure, shortened: as §1
# [12] = biological target: Neu5Ac(a2-3)Gal(b1-4)[Fuc(a1-3)]GlcNAc(b1-6)[Gal(b1-3)]GalNAc
# Procedure, shortened: as §1
# [13] = biological target: Neu5Ac(a2-3)Gal(b1-4)[Fuc(a1-3)]GlcNAc(b1-6)[Neu5Ac(a2-3)Gal(b1-3)]GalNAc
# Procedure, shortened: as §1
# [14] = biological target: Neu5Ac(a2-3)Gal(b1-4)[Fuc(a1-3)]GlcNAc6S
# Procedure, shortened: as §1
# [15] = biological target: Neu5Ac(a2-3)Gal6S(b1-4)GlcNAc
# Procedure, shortened: as §1
# [16] = biological target: Neu5Ac(a2-3)Gal6S(b1-4)[Fuc(a1-3)]GlcNAc
# Procedure, shortened: as §1
# [17] = biological target: Neu5Ac(a2-3)GalNAc
# Procedure, shortened: as §1
# [18] = biological target: Neu5Ac(a2-3)GalNAc(b1-4)GlcNAc
# Procedure, shortened: as §1
# [19] = biological target: Neu5Ac(a2-3)[GalNAc(b1-4)]Gal(b1-4)Glc
# Procedure, shortened: as §1
# [20] = biological target: Neu5Ac(a2-3)[GalNAc(b1-4)]Gal(b1-4)GlcNAc
# Procedure, shortened: as §1
# [21] = biological target: Neu5Ac(a2-3)[GalNAc(b1-4)]Gal(b1-4)GlcNAc(b1-3)GalNAc
# Procedure, shortened: as §1
# [22] = biological target: Neu5Ac(a2-3)[Neu5Ac(a2-6)]GalNAc
# Procedure, shortened: as §1
# [23] = biological target: Neu5Ac(a2-6)Gal
# Procedure, shortened: as §1
# [24] = biological target: Neu5Ac(a2-6)Gal(b1-3)GlcNAc(b1-3)[Gal(b1-4)GlcNAc(b1-6)]Gal(b1-4)Glc
# Procedure, shortened: as §1
# [25] = biological target: Neu5Ac(a2-6)Gal(b1-4)Glc
# Procedure, shortened: as §1
# [26] = biological target: Neu5Ac(a2-6)Gal(b1-4)GlcNAc
# Procedure, shortened: as §1
# [27] = biological target: Neu5Ac(a2-6)Gal(b1-4)GlcNAc(b1-2)Man
# Procedure, shortened: as §1
# [28] = biological target: Neu5Ac(a2-6)Gal(b1-4)GlcNAc(b1-2)Man(a1-3)Man(b1-4)GlcNAc(b1-4)GlcNAc
# Procedure, shortened: as §1
# [29] = biological target: Neu5Ac(a2-6)Gal(b1-4)GlcNAc(b1-2)Man(a1-3)[Gal(b1-4)GlcNAc(b1-2)Man(a1-6)]Man(b1-4)GlcNAc(b1-4)GlcNAc
# Procedure, shortened: as §1
# [30] = biological target: Neu5Ac(a2-6)Gal(b1-4)GlcNAc(b1-2)Man(a1-3)[GlcNAc(b1-2)Man(a1-6)]Man(b1-4)GlcNAc(b1-4)GlcNAc
# Procedure, shortened: as §1
# [31] = biological target: Neu5Ac(a2-6)Gal(b1-4)GlcNAc(b1-2)Man(a1-3)[GlcNAc(b1-4)][Neu5Ac(a2-6)Gal(b1-4)GlcNAc(b1-2)Man(a1-6)]Man(b1-4)GlcNAc(b1-4)GlcNAc
# Procedure, shortened: as §1
binder,measurement,setting,value
B1,glycan array binding signal (z-score),[1],-0.068
same,glycan array binding signal (z-score),[2],-0.594
same,glycan array binding signal (z-score),[3],0.394
same,glycan array binding signal (z-score),[4],-0.574
same,glycan array binding signal (z-score),[5],-0.562
same,glycan array binding signal (z-score),[6],-0.452
same,glycan array binding signal (z-score),[7],-0.54
same,glycan array binding signal (z-score),[8],-0.714
same,glycan array binding signal (z-score),[9],-0.13
same,glycan array binding signal (z-score),[10],-0.574
same,glycan array binding signal (z-score),[11],1.32
same,glycan array binding signal (z-score),[12],-0.102
same,glycan array binding signal (z-score),[13],-0.441
same,glycan array binding signal (z-score),[14],-0.364
same,glycan array binding signal (z-score),[15],-0.031
same,glycan array binding signal (z-score),[16],-0.428
same,glycan array binding signal (z-score),[17],-0.452
same,glycan array binding signal (z-score),[18],-0.772
same,glycan array binding signal (z-score),[19],-0.718
same,glycan array binding signal (z-score),[20],-0.411
same,glycan array binding signal (z-score),[21],0.584
same,glycan array binding signal (z-score),[22],1.81
same,glycan array binding signal (z-score),[23],-0.58
same,glycan array binding signal (z-score),[24],-0.536
same,glycan array binding signal (z-score),[25],-0.604
same,glycan array binding signal (z-score),[26],-0.328
same,glycan array binding signal (z-score),[27],-0.499
same,glycan array binding signal (z-score),[28],-0.274
same,glycan array binding signal (z-score),[29],-0.237
same,glycan array binding signal (z-score),[30],-0.496
same,glycan array binding signal (z-score),[31],-0.593

# — the supplement of paper PMC8728848
